Results reported in the supplement of paper PMC4604168 (melanoma cell lines).
The list shows a part of the results. Many values rest on one well or one pass, so single values are uncertain.

Legend:
Test in all cases: cell count relative to DMSO control; melanoma cells; higher = more viable cells
Settings in all cases: library dose: low library concentration; 72 h
WM115 = system: WM115
WM1716 = system: WM1716
WM1745 = system: WM1745
WM3526 = system: WM3526
WM3619 = system: WM3619
WM451Lu = system: WM451Lu
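Further: cell number obtained by counting DAPI-stained nuclei in high-throughput microscope images with image analysis software, screen run in 1,536-well plates.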

Structure (SMILES)	cell count (WM115) [%]	cell count (WM1716) [%]	cell count (WM1745) [%]	cell count (WM3526) [%]	cell count (WM3619) [%]	cell count (WM451Lu) [%]
CN1CCN(c2ccc3nc(-c4c(N)c5c(F)cccc5[nH]c4=O)[nH]c3c2)CC1 [Dovitinib] + COc1ccc(COc2ccc(Cc3cnc(N)nc3N)cc2OC)cc1 [GW2580] (first compound 0.1 µM, partner dose 1 µM)	101	110	77.2	88.7	118	108
CS(=O)(=O)CCNCc1ccc(-c2ccc3ncnc(Nc4ccc(OCc5cccc(F)c5)c(Cl)c4)c3c2)o1 [lapatinib] + Cc1cc(N2CCOCC2)cc2[nH]c(-c3c(NC[C@@H](O)c4cccc(Cl)c4)cc[nH]c3=O)nc12 [BMS536924] (first compound 0.8 µM, partner dose 0.2 µM)	90.6	118	73.7	91	94.4	109
CNC(=O)c1cc(Oc2ccc(NC(=O)Nc3ccc(Cl)c(C(F)(F)F)c3)cc2)ccn1 [sorafenib] + Cn1nnc2c(C(N)=O)ncn2c1=O [temozolomide] (first compound 0.4 µM, partner dose 2 µM)	101	80.2	109	94.7	90.5	82.2
C=CCNC1=C2C[C@@H](C)C[C@H](OC)[C@H](O)[C@@H](C)/C=C(\C)[C@H](OC(N)=O)[C@@H](OC)/C=C\C=C(/C)C(=O)NC(=CC1=O)C2=O [Tanespimycin] + O=C(Nc1ccccc1)c1cc([N+](=O)[O-])ccc1Cl [GW9662] (first compound 0.002 µM, partner dose 2 µM)	89.5	103	95	109	97.2	101
CNC(=O)c1cc(Oc2ccc(NC(=O)Nc3ccc(Cl)c(C(F)(F)F)c3)cc2)ccn1 [sorafenib] + O=c1cc(-c2cccc3c2Sc2ccccc2S3)oc(N2CCOCC2)c1 [KU55933] (first compound 0.4 µM, partner dose 1 µM)	107	110	96	83	96.3	90.5
CNC(=O)c1cc(Oc2ccc(NC(=O)Nc3ccc(Cl)c(C(F)(F)F)c3)cc2)ccn1 [sorafenib] + O=C(O)c1ccc2c(c1)nc(Nc1cccc(Cl)c1)c1ccncc12 [CX4945] (first compound 0.4 µM, partner dose 0.4 µM)	97.2	90.9	89.8	91.8	110	101
CNC(=O)c1cc(Oc2ccc(NC(=O)Nc3ccc(Cl)c(C(F)(F)F)c3)cc2)ccn1 [sorafenib] + CC(C)CCN1c2nc(Nc3cc(F)c(O)c(F)c3)ncc2N(C)C(=O)C1C [BID1870] (first compound 0.4 µM, partner dose 0.2 µM)	89.3	108	93.4	87	103	117
C[C@@H](Oc1cc(-c2cnn(C3CCNCC3)c2)cnc1N)c1c(Cl)ccc(F)c1Cl [Crizotinib] + COCC[n+]1c2c(n(Cc3cnccn3)c1C)C(=O)c1ccccc1C2=O [YM155] (first compound 0.2 µM, partner dose 0.0004 µM)	84.3	113	90.7	104	105	89.4
CN1CCN(c2ccc3nc(-c4c(N)c5c(F)cccc5[nH]c4=O)[nH]c3c2)CC1 [Dovitinib] + Nc1ccn([C@@H]2O[C@H](CO)[C@@H](O)C2(F)F)c(=O)n1 [gemcitabine] (first compound 0.1 µM, partner dose 0.0004 µM)	97.6	112	68.6	78.7	89	81.1
CNC(=O)c1cc(Oc2ccc(NC(=O)Nc3ccc(Cl)c(C(F)(F)F)c3)cc2)ccn1 [sorafenib] + Nc1ccn([C@@H]2O[C@H](CO)[C@@H](O)C2(F)F)c(=O)n1 [gemcitabine] (first compound 0.4 µM, partner dose 0.0004 µM)	107	105	94.1	98.6	81	114
C[C@@H](Oc1cc(-c2cnn(C3CCNCC3)c2)cnc1N)c1c(Cl)ccc(F)c1Cl [Crizotinib] + O=C1NC(=O)/C(=C/c2ccc(-c3ccc(F)cc3O)o2)S1 [AS252424] (first compound 0.2 µM, partner dose 1 µM)	94.1	128	107	98.6	83.7	96.4
CNC(=O)c1cc(Oc2ccc(NC(=O)Nc3ccc(Cl)c(C(F)(F)F)c3)cc2)ccn1 [sorafenib] + Cc1cc([N+](=O)[O-])ccc1NS(=O)(=O)c1cc(Cl)ccc1Cl [FH535] (first compound 0.4 µM, partner dose 1 µM)	85.2	69.5	86.3	93.5	89.9	102
CN1CCN(c2ccc3nc(-c4c(N)c5c(F)cccc5[nH]c4=O)[nH]c3c2)CC1 [Dovitinib] + N#Cc1c(O)c2c(-c3ccc(-c4ccccc4O)cc3)csc2[nH]c1=O [A769662] (first compound 0.1 µM, partner dose 2 µM)	86.8	97.9	90.4	83.1	83	94.3
CS(=O)(=O)CCNCc1ccc(-c2ccc3ncnc(Nc4ccc(OCc5cccc(F)c5)c(Cl)c4)c3c2)o1 [lapatinib] + COc1cc(N2CCC(N3CCN(C)CC3)CC2)ccc1Nc1ncc(Cl)c(Nc2ccccc2S(=O)(=O)C(C)C)n1 [NVP-TAE684] (first compound 0.8 µM, partner dose 0.08 µM)	82	86.3	78.3	72.6	92.8	98.6
C=CCNC1=C2C[C@@H](C)C[C@H](OC)[C@H](O)[C@@H](C)/C=C(\C)[C@H](OC(N)=O)[C@@H](OC)/C=C\C=C(/C)C(=O)NC(=CC1=O)C2=O [Tanespimycin] + C[C@]1(c2nc3c(C(N)=O)cccc3[nH]2)CCCN1 [Veliparib] (first compound 0.002 µM, partner dose 1.4 µM)	83.5	88.8	77.9	99.8	101	74.9
C[C@@H](Oc1cc(-c2cnn(C3CCNCC3)c2)cnc1N)c1c(Cl)ccc(F)c1Cl [Crizotinib] + CN1CCN(c2ccc3nc(-c4c(N)c5c(F)cccc5[nH]c4=O)[nH]c3c2)CC1 [Dovitinib] (first compound 0.2 µM, partner dose 0.1 µM)	82.7	123	97.5	104	118	99.9
C[C@@H](Oc1cc(-c2cnn(C3CCNCC3)c2)cnc1N)c1c(Cl)ccc(F)c1Cl [Crizotinib] + Nc1ncn([C@H]2C[C@H](O)[C@@H](CO)O2)c(=O)n1 [decitabine] (first compound 0.2 µM, partner dose 0.1 µM)	91.2	94.6	103	124	110	99.5
C=CCNC1=C2C[C@@H](C)C[C@H](OC)[C@H](O)[C@@H](C)/C=C(\C)[C@H](OC(N)=O)[C@@H](OC)/C=C\C=C(/C)C(=O)NC(=CC1=O)C2=O [Tanespimycin] + Oc1cc(-c2nc(-c3ccccc3)[nH]c2-c2ccncc2)ccc1Cl [L779450] (first compound 0.002 µM, partner dose 0.2 µM)	81.2	112	77.2	85.9	92.7	97.1
CNC(=O)c1cc(Oc2ccc(NC(=O)Nc3ccc(Cl)c(C(F)(F)F)c3)cc2)ccn1 [sorafenib] + Oc1cc(-c2nc(-c3ccccc3)[nH]c2-c2ccncc2)ccc1Cl [L779450] (first compound 0.4 µM, partner dose 0.2 µM)	80.7	96.1	79.3	71.7	87.2	97.6
C=CCNC1=C2C[C@@H](C)C[C@H](OC)[C@H](O)[C@@H](C)/C=C(\C)[C@H](OC(N)=O)[C@@H](OC)/C=C\C=C(/C)C(=O)NC(=CC1=O)C2=O [Tanespimycin] + CN(C)S(=O)(=O)c1ccc2c(c1)/C(=C/c1cc3c([nH]1)CCCC3)C(=O)N2 [SU6656] (first compound 0.002 µM, partner dose 0.4 µM)	56.3	106	63.7	148	45.3	92.5
CNC(=O)c1cc(Oc2ccc(NC(=O)Nc3ccc(Cl)c(C(F)(F)F)c3)cc2)ccn1 [sorafenib] + Nc1nc(F)nc2c1ncn2[C@@H]1O[C@H](CO)[C@@H](O)[C@@H]1O [fludarabine] (first compound 0.4 µM, partner dose 0.2 µM)	101	91.8	93.9	47.4	87.4	48.4
CS(=O)(=O)CCNCc1ccc(-c2ccc3ncnc(Nc4ccc(OCc5cccc(F)c5)c(Cl)c4)c3c2)o1 [lapatinib] + NC(=O)Nc1cc(-c2cccc(F)c2)sc1C(=O)N[C@H]1CCCNC1 [AZD7762] (first compound 0.8 µM, partner dose 0.02 µM)	98.7	75.9	83.7	92.1	38.8	93.1
CS(=O)(=O)CCNCc1ccc(-c2ccc3ncnc(Nc4ccc(OCc5cccc(F)c5)c(Cl)c4)c3c2)o1 [lapatinib] + Clc1ccc(Nc2nnc(Cc3ccncc3)c3ccccc23)cc1 [vatalanib] (first compound 0.8 µM, partner dose 2 µM)	101	105	101	98.5	82.8	94.2
C=CCNC1=C2C[C@@H](C)C[C@H](OC)[C@H](O)[C@@H](C)/C=C(\C)[C@H](OC(N)=O)[C@@H](OC)/C=C\C=C(/C)C(=O)NC(=CC1=O)C2=O [Tanespimycin] + N#Cc1c(O)c2c(-c3ccc(-c4ccccc4O)cc3)csc2[nH]c1=O [A769662] (first compound 0.002 µM, partner dose 2 µM)	90.7	105	81.8	91.7	83.6	93.5
C=CCNC1=C2C[C@@H](C)C[C@H](OC)[C@H](O)[C@@H](C)/C=C(\C)[C@H](OC(N)=O)[C@@H](OC)/C=C\C=C(/C)C(=O)NC(=CC1=O)C2=O [Tanespimycin] + CO[C@@H]1[C@H](N(C)C(=O)c2ccccc2)C[C@H]2O[C@]1(C)n1c3ccccc3c3c4c(c5c6ccccc6n2c5c31)C(=O)NC4 [Midostaurin] (first compound 0.002 µM, partner dose 0.08 µM)	80.4	77	67.3	102	101	57.7
C=CCNC1=C2C[C@@H](C)C[C@H](OC)[C@H](O)[C@@H](C)/C=C(\C)[C@H](OC(N)=O)[C@@H](OC)/C=C\C=C(/C)C(=O)NC(=CC1=O)C2=O [Tanespimycin] + Cn1cc(/C=C2\C(=O)Nc3cccnc32)c2ccccc21 [GW441756] (first compound 0.002 µM, partner dose 0.4 µM)	87.4	106	85.3	84.6	77.4	113
